The other results are listed elsewhere or left out. Rule as the data show it: active = 3.2 or more and inactive = the rest. Only a few entries rise above the background.
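Also: displayed peptides selected on beads carrying the immobilized SH2 domain, with library peptides lacking any tyrosine serving as negative controls.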

For one test, the target named is SHP2 C-SH2 domain E139D. In words: enrichment score (SH2-bound / input frequency) (ratio); bacterial display of known human phosphotyrosine sites (pTyr-Var adds point mutants) read by sequencing; higher = stronger binding; tyrosines were phosphorylated by kinases first. To be noted: peptide library: pTyr-Var.
Turning to YLAATYPTVGQ [NF1_Y2508], the enrichment score is inactive: 0.714.
As for IVLRSYPASGH [NID2_Y449], the enrichment score was inactive: 1.02.
The same measure, in the same setting: then TRSYKYLLLSM [NF1_Y491], with active: 4.76; and GMTLSYLFWEP [NDUFS8_Y74_R77W], with inactive: 2.47.
The same measure, in the same setting: then SLFNGYVYSGM [NEIL3_Y71_V76M], with inactive: 1.79.
Regarding FQKDVYNIPPS [NEDD9_Y177_D178N_YF], the enrichment score was inactive: 0.815.
With GSSEDYLHMVH [NIPBL_Y247], the enrichment score was inactive: 0.837.
Consider EMFNPCFGLFE [NEDD4L_Y679_Y679C_YF], for which the enrichment score is inactive: 1.14.
Regarding GMTLSYLFREL [NDUFS8_Y74_P79L], the enrichment score is active: 3.7.
On the same count and under the same terms, to VFFGSYSCPFG [NKAP_Y104_R106C_YF] belongs inactive: 1.11; to KGSEGYLAAIF [NF1_Y2503_T2507I_YF], inactive: 0.532.
The same measure, in the same setting: then TSEASYFKSLN [NGEF_Y288_YF], with inactive: 0.463.
The same measure, in the same setting: to KGSEGYLAATF [NF1_Y2503_YF] belongs inactive: 0.792; to GASRRYGSGVS [NEU1_Y242_W240R], inactive: 0.203.
On to KEDSAYGSQSV [NFKB2_Y868], for which the enrichment score was inactive: 0.462.
Consider SLFNGYVYSGV [NEIL3_Y71], for which the enrichment score is inactive: 0.945.
On to FLAAIYPTVGQ [NF1_Y2508_T2507I_YF], for which the enrichment score was inactive: 1.77.
Take SWSTSYSGYRC [NKAPL_Y91_Y96C]: the enrichment score is inactive: 0.947.
The same measure, in the same setting: then KEDSVYGSQSV [NFKB2_Y868_A867V], with inactive: 0.491.

The target of the next test is SHP2 C-SH2 domain wild-type. The test is described as above. To be noted: peptide library: pTyr-Var.
With YLAATYPTVGQ [NF1_Y2508], the enrichment score is inactive: 0.806.
Turning to IVLRSYPASGH [NID2_Y449], the enrichment score was inactive: 0.843.
Regarding TRSYKYLLLSM [NF1_Y491], the enrichment score was active: 4.85.
GMTLSYLFWEP [NDUFS8_Y74_R77W]: the enrichment score was inactive: 2.4.
The same measure, in the same setting: to SLFNGYVYSGM [NEIL3_Y71_V76M] belongs inactive: 2.44; to FQKDVYNIPPS [NEDD9_Y177_D178N_YF], inactive: 0.704; to GSSEDYLHMVH [NIPBL_Y247], inactive: 0.713.
For the molecule EMFNPCFGLFE [NEDD4L_Y679_Y679C_YF], the enrichment score is inactive: 1.01.
On the same count and under the same terms, then GMTLSYLFREL [NDUFS8_Y74_P79L], with inactive: 3.16; and VFFGSYSCPFG [NKAP_Y104_R106C_YF], with inactive: 1.17; and KGSEGYLAAIF [NF1_Y2503_T2507I_YF], with inactive: 0.652.
Take TSEASYFKSLN [NGEF_Y288_YF]: the enrichment score was inactive: 0.491.
The same measure, in the same setting: to KGSEGYLAATF [NF1_Y2503_YF] belongs inactive: 0.53; to GASRRYGSGVS [NEU1_Y242_W240R], inactive: 0.299; to KEDSAYGSQSV [NFKB2_Y868], inactive: 0.452.
Consider SLFNGYVYSGV [NEIL3_Y71], for which the enrichment score is inactive: 1.58.
The same measure, in the same setting: to FLAAIYPTVGQ [NF1_Y2508_T2507I_YF] belongs inactive: 1.35; to SWSTSYSGYRC [NKAPL_Y91_Y96C], inactive: 1; to KEDSVYGSQSV [NFKB2_Y868_A867V], inactive: 0.517.

Another test has as its target SHP2 N-SH2 domain L43F. The description is as above. The following applies: peptide library: pTyr-Var.
Turning to YLAATYPTVGQ [NF1_Y2508], the enrichment score was inactive: 0.712.
Consider IVLRSYPASGH [NID2_Y449], for which the enrichment score is inactive: 0.989.
On the same count and under the same terms, to TRSYKYLLLSM [NF1_Y491] belongs active: 5.31.
Still for that read-out and setting: to GMTLSYLFWEP [NDUFS8_Y74_R77W] belongs inactive: 2.52.
Same read-out and setting: then SLFNGYVYSGM [NEIL3_Y71_V76M], with inactive: 1.49.
Consider FQKDVYNIPPS [NEDD9_Y177_D178N_YF], for which the enrichment score is inactive: 0.572.
Still for that read-out and setting: to GSSEDYLHMVH [NIPBL_Y247] belongs inactive: 0.663; to EMFNPCFGLFE [NEDD4L_Y679_Y679C_YF], inactive: 1.01.
Consider GMTLSYLFREL [NDUFS8_Y74_P79L], for which the enrichment score was inactive: 3.19.
Still for that read-out and setting: then VFFGSYSCPFG [NKAP_Y104_R106C_YF], with inactive: 0.913; and KGSEGYLAAIF [NF1_Y2503_T2507I_YF], with inactive: 0.455; and TSEASYFKSLN [NGEF_Y288_YF], with inactive: 0.41.
On the same count and under the same terms, then KGSEGYLAATF [NF1_Y2503_YF], with inactive: 0.818; and GASRRYGSGVS [NEU1_Y242_W240R], with inactive: 0.255; and KEDSAYGSQSV [NFKB2_Y868], with inactive: 0.496.
For the molecule SLFNGYVYSGV [NEIL3_Y71], the enrichment score was inactive: 0.849.
As for FLAAIYPTVGQ [NF1_Y2508_T2507I_YF], the enrichment score was inactive: 1.59.
The same measure, in the same setting: to SWSTSYSGYRC [NKAPL_Y91_Y96C] belongs inactive: 0.75.
The same measure, in the same setting: to KEDSVYGSQSV [NFKB2_Y868_A867V] belongs inactive: 0.659.

A further test addresses SHP2 N-SH2 domain T42A. The description is as above. The following applies: peptide library: pTyr-Var.
As to YLAATYPTVGQ [NF1_Y2508], the enrichment score was inactive: 0.967.
Same read-out and setting: to IVLRSYPASGH [NID2_Y449] belongs inactive: 0.947; to TRSYKYLLLSM [NF1_Y491], active: 9.74; to GMTLSYLFWEP [NDUFS8_Y74_R77W], inactive: 2.1.
Consider SLFNGYVYSGM [NEIL3_Y71_V76M], for which the enrichment score is inactive: 1.76.
Same read-out and setting: then FQKDVYNIPPS [NEDD9_Y177_D178N_YF], with inactive: 0.627; and GSSEDYLHMVH [NIPBL_Y247], with inactive: 0.613; and EMFNPCFGLFE [NEDD4L_Y679_Y679C_YF], with inactive: 1.02.
Same read-out and setting: to GMTLSYLFREL [NDUFS8_Y74_P79L] belongs inactive: 2.82.
Consider VFFGSYSCPFG [NKAP_Y104_R106C_YF], for which the enrichment score is inactive: 1.12.
Consider KGSEGYLAAIF [NF1_Y2503_T2507I_YF], for which the enrichment score is inactive: 0.566.
On to TSEASYFKSLN [NGEF_Y288_YF], for which the enrichment score is inactive: 0.409.
Regarding KGSEGYLAATF [NF1_Y2503_YF], the enrichment score was inactive: 0.558.
The same measure, in the same setting: to GASRRYGSGVS [NEU1_Y242_W240R] belongs inactive: 0.232.
Still for that read-out and setting: then KEDSAYGSQSV [NFKB2_Y868], with inactive: 0.541.
For the molecule SLFNGYVYSGV [NEIL3_Y71], the enrichment score was inactive: 1.28.
Still for that read-out and setting: then FLAAIYPTVGQ [NF1_Y2508_T2507I_YF], with inactive: 1.68; and SWSTSYSGYRC [NKAPL_Y91_Y96C], with inactive: 0.87; and KEDSVYGSQSV [NFKB2_Y868_A867V], with inactive: 0.392.

Another test deals with SHP2 N-SH2 domain T52S. The description is as above. The following applies: peptide library: pTyr-Var.
As to YLAATYPTVGQ [NF1_Y2508], the enrichment score was inactive: 0.96.
The same measure, in the same setting: to IVLRSYPASGH [NID2_Y449] belongs inactive: 1.07; to TRSYKYLLLSM [NF1_Y491], active: 6.08; to GMTLSYLFWEP [NDUFS8_Y74_R77W], inactive: 2.42.
With SLFNGYVYSGM [NEIL3_Y71_V76M], the enrichment score was inactive: 1.39.
Same read-out and setting: to FQKDVYNIPPS [NEDD9_Y177_D178N_YF] belongs inactive: 0.677; to GSSEDYLHMVH [NIPBL_Y247], inactive: 0.815; to EMFNPCFGLFE [NEDD4L_Y679_Y679C_YF], inactive: 1.19.
For GMTLSYLFREL [NDUFS8_Y74_P79L], the enrichment score is inactive: 3.14.
As to VFFGSYSCPFG [NKAP_Y104_R106C_YF], the enrichment score is inactive: 0.861.
Consider KGSEGYLAAIF [NF1_Y2503_T2507I_YF], for which the enrichment score was inactive: 0.564.
Still for that read-out and setting: to TSEASYFKSLN [NGEF_Y288_YF] belongs inactive: 0.437.
With KGSEGYLAATF [NF1_Y2503_YF], the enrichment score was inactive: 0.568.
On the same count and under the same terms, to GASRRYGSGVS [NEU1_Y242_W240R] belongs inactive: 0.278; to KEDSAYGSQSV [NFKB2_Y868], inactive: 0.507; to SLFNGYVYSGV [NEIL3_Y71], inactive: 0.938.
On to FLAAIYPTVGQ [NF1_Y2508_T2507I_YF], for which the enrichment score was inactive: 1.89.
The same measure, in the same setting: to SWSTSYSGYRC [NKAPL_Y91_Y96C] belongs inactive: 0.68.
For KEDSVYGSQSV [NFKB2_Y868_A867V], the enrichment score was inactive: 0.439.

For a further test, the target named is SHP2 N-SH2 domain wild-type. The test is described as above. To be noted: peptide library: pTyr-Var.
Turning to YLAATYPTVGQ [NF1_Y2508], the enrichment score is inactive: 0.801.
On the same count and under the same terms, then IVLRSYPASGH [NID2_Y449], with inactive: 0.943; and TRSYKYLLLSM [NF1_Y491], with active: 4.18.
On the same count and under the same terms, to GMTLSYLFWEP [NDUFS8_Y74_R77W] belongs inactive: 2.75; to SLFNGYVYSGM [NEIL3_Y71_V76M], inactive: 1.6; to FQKDVYNIPPS [NEDD9_Y177_D178N_YF], inactive: 0.657.
The same measure, in the same setting: to GSSEDYLHMVH [NIPBL_Y247] belongs inactive: 0.86.
For the molecule EMFNPCFGLFE [NEDD4L_Y679_Y679C_YF], the enrichment score is inactive: 0.999.
As for GMTLSYLFREL [NDUFS8_Y74_P79L], the enrichment score was inactive: 2.9.
Still for that read-out and setting: then VFFGSYSCPFG [NKAP_Y104_R106C_YF], with inactive: 1.21; and KGSEGYLAAIF [NF1_Y2503_T2507I_YF], with inactive: 0.582.
For TSEASYFKSLN [NGEF_Y288_YF], the enrichment score was inactive: 0.475.
On the same count and under the same terms, to KGSEGYLAATF [NF1_Y2503_YF] belongs inactive: 0.746; to GASRRYGSGVS [NEU1_Y242_W240R], inactive: 0.339; to KEDSAYGSQSV [NFKB2_Y868], inactive: 0.527.
The same measure, in the same setting: then SLFNGYVYSGV [NEIL3_Y71], with inactive: 0.9.
On the same count and under the same terms, to FLAAIYPTVGQ [NF1_Y2508_T2507I_YF] belongs inactive: 1.31; to SWSTSYSGYRC [NKAPL_Y91_Y96C], inactive: 1.09; to KEDSVYGSQSV [NFKB2_Y868_A867V], inactive: 0.486.

The values are drawn from the supplement of paper PMC10369915.
